This is an account of results in the RNAGym collection of RNA variant scans (doi:10.1073/pnas.2313332121).

Variants at the floor of the assay are shown more often than the library holds them.

B1: TPR 5TU (parent)
chain: GGAUCUUCUCGAUCUAACAAAAAAGACAAAUCUGCCACAAAGCUUGAGAGCAUCUUCGGAUGCAGAGGCGGCAGCCUUCGGUGGCGCGAUAGCGCCAACGUUCUCAACUAUGACACGCAAAACGCGUGCUCCGUUGAAUGGAGUUUAUCAUG

Variants of B1 are the subject of this data set. Briefly: polymerase ribozyme fitness, log enrichment relative to wild type (log ratio); higher = more active; in vitro selection for triplet polymerase activity. Put shortly: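 Genotype fitness is the logarithm of its enrichment divided by wild-type enrichment, using inverse-variance-weighted averages of replicates. That logarithm is base 2. Enrichment was measured by Illumina sequencing of input and output libraries from one triplicate in vitro selection round, with frozen incubation at −7 °C, on PCR-built, transcribed mutant libraries of each subunit of a heterodimeric triplet polymerase ribozyme, retaining genotypes with ≥10 input reads and ≥1 read per output.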
In the case of GGAUCUUCUCGAUCUCACAAAAAAGACAAAUAUGCCACAAAGCUUGAGAGCAUCUUCGGAUGCAGAGGCGGCAGCCUUCGGUGGCGCGAUAGCGCCAAAGUUCUCAACUAUGACACGCACAACGCGUGCUCCGCUGAAUGGAGUUUAUCAGG [A16C C32A C99A A120C U134C U151G], the “polymerase ribozyme fitness (log ratio)” value was no more than -4.2. Next, GGAUCUUCUCGAUCUCACAAAAAAGACAAAUCUGUCACAAAGCUUGAGAGCAUCUUCGGAUGCAGAGGCGGCAGCCUUCAGUGGCGCGAUAGCACCAACGUUCUCAACUAUGACACGUAAAACGCGUGCUCCGUUGAAUGGAGUUUAUCAUG [A16C C35U G80A G94A C118U]: -3.33. Next, GGAUCUUCUCGAUCUCACAAAAAAGACAAAUCUGCCAUAAAGCUUGAGAGCAUCUUCGGAUGCAGAGGCGGCAGCCUUCUGUGGCGCGAUAGCGCGAACGUUCUCAACUAUGACACGCAAAACGCGUGCUCCGUUGAAUGGCGUUUAGCAUG [A16C C38U G80U C96G A142C U148G]: no more than -4.2; GGAUCUUCUCGAUCUCACAAAAAAGACAAAUCUGCCACAAAGCUUGAGAGCAUUGUCGGAUGCAGAGGCGGCAGCCUUUGGUGGCGCGAUAGCGCCAACGUUCUUAACUAUGACACGCAAAACGAGUGCUCCGUUGAAUGGAGUUUGUCAUG [A16C C54U U55G C79U C105U C125A A147G]: no more than -4.2; GGAUCUUCUCGAUCUCACAAAAAAGACAAAUCUGCUACAAAGCUUAAGAGCAUCUUCGGUUGCAGAGGCGGCAGCCUUCGGUGGCGCGAUAGCGCCAACGUUCUCAACUAUGACACGCAAAACGCGGGCUCCGUUGAAUGGAGUUUAUCAUG [A16C C36U G46A A60U U127G]: no more than -4.2.

For the variant GGAUCUUCUCGAUCUCACAAAAAAGACAAAUCUGCCACAAAGCUUGAGAGUAUCUUCGGAUGCAGAGGCGGCAGCCUUCGGUGGCGGGAUAGCGCCAACGUUCUCAACUAUGACACGGAAAACGCGUGCUCCUUUGAAUGGAGUUUAUCAUG [A16C C51U C87G C118G G133U], the “polymerase ribozyme fitness (log ratio)” value was no more than -4.2.

For GGAUCUUCUCGAUCUCACAAAAAAGACAAAUCUGCCAUAAAGCUUGAGAACAUCUUCGGAUGCAGAGGCGGCAGCCUUCGGUGGCGCGAUAGCGGCAACGUUCUCAACUAUGACAGGCAAAACGCGUGCUCCGUUGAAUGGAGUUUAUCAUG [A16C C38U G50A C95G C116G], the “polymerase ribozyme fitness (log ratio)” value is -4.14. As for GGAUCUUCUCGAUCUCACAAAAAAGACAAAUCUGCCACAAAGCUUGAGAGCAUCUUAGGAUGCAGAGGCGGCAGCCUUCGGUGGCGCGAUAGCACCAACGUUCUCAACUAUGACAUGCAAAACACGUGCUCCGUUGAAUGGUGUUUAUCAUG [A16C C57A G94A C116U G124A A142U], the figure is -3.92. As for GGAUCUUCUCGAUCUCACAAAAAAGACAAAUCUGCGACAAAGCUUGAGAGCAUCUUCGGCUGCAGAGGCGGCAGCCUUCGGUGGCGCGAUCGCGCCAACGUUCUCAGCUAUGACACGCAAAACGCGUGUUCCGUUGAAUGGUGUACAUCACA [A16C C36G A60C A91C A107G C129U A142U U145A U146C U151C G152A], the figure is no more than -4.2; as for GGAUCUUCUCGAUCUCACAAAAAAGACAAAUAUGCCACAAAGCUUGAGAGCAUCUUCGGAAGCAGAGGCGGCAGCCUUCGGUGGCGCGAUAGCGCCAACGUGCUCAACUAUGACACGCAAAACGCGUGCUCCGUUGAAUGGAGUUUAUCAUG [A16C C32A U61A U102G], no more than -4.2; as for GGAUCUUCUCGAUCUCACAAAAAAGACAAAUCUGCCACAAAGCUUGAGAGCAUCUUUGAAUGCAGCGGCGGCAGCCUACGGUGGCGCGAUAACGCCAAUGUUCUCAACUAUGACACGCAAAACGCGUCCUCCGUUGAAUGGAGUUUAUCAUG [A16C C57U G59A A66C U78A G92A C99U G128C], no more than -4.2. For GGAUCUUCUCGAUCUCACAAAAAAGAAAAAUCUGCCACAAAGCUUGAGAGCAACUUCGGAUGCAGAGGCGGCAGCCUUCGGCGGUGCGAUAGCGCCAACGUUCUCAACUUUGAAACGCAAACCGCGUGCUCCGUUGAAUGGAGUUUAUCAUG [A16C C27A U53A U82C C85U A110U C114A A122C], the “polymerase ribozyme fitness (log ratio)” value was no more than -4.2. In the case of GGAUCUUCUCGAUCUCACAAAAAAGACAAAUCUGCCACAAAGUUUGAGAGUAUCUUCGGAUGCAGAGUCGGCAGCCUUCGGUGGCGCGAUAGGGCCAACGUUCUCAACUAUGACACGCAAAACGCGUGCUCCGUUGAAUGGAGUUUAUCAUG [A16C C43U C51U G68U C93G], the “polymerase ribozyme fitness (log ratio)” value is no more than -4.2. Regarding GGAUCUUCUCGAUCUCACAAAAAAGAUAAAUCUGCCACAUAGCUUGAGAGCAUCGUCGGAUGCAGAGGCGGCAGCCUUCGGUGGUGCGAUAGCGCCAACGUUCUCAUCUAUGACGCGCAAAACGCGUGCUCCGUUGAAUGGAGUUUAUCAUG [A16C C27U A40U U55G C85U A107U A115G], the “polymerase ribozyme fitness (log ratio)” value was no more than -4.2. Next, GGAUCUUCUCGAUCUCACAAAAAAGACAAAUCUGCUAUAAAGCUUGAGAGCAUCUUCGGAUGCAGAGGCGGCAGCUUUCGGUGGCGCGAUAGCGCCAACGUUCUCAACUAUGACACGCAAAACGCGUGCUCCGUUGAGUGGAUUUUAUCAUG [A16C C36U C38U C76U A138G G143U]: no more than -4.2; GGAUCUUCUCGAUCUCACAAAAAAGACAAAUCUGCCACAAAGUUUUAGAGCGUCUUCGGAUGCAGAGGCGGCAGCCUUCGGUGGCGCGAUAGCGACAACGUUCUCAACUAUAACACGCAAAACGCGUGCUCCGUUGAAUGGAGUUUAUCAUG [A16C C43U G46U A52G C95A G112A]: no more than -4.2.

Consider GGAUCUUCUCGAUCUCACAAAAAAGAUAAAUCUGCCACAAAGCUGGAGAGCAUCUUCGGAUGCAGAGGCGGCAGCCUUCGGUAGCGCGAUAGCGCCAACGUUCUCCACUAUGACACGCAAAACGCGUGCUCCGUUGAAUGGAAUUUAUCAUG [A16C C27U U45G G83A A106C G143A], for which the “polymerase ribozyme fitness (log ratio)” value is no more than -4.2. As for GGAUCUUCUCGAUCUCACAAAAAAGACAAAUCUGCCACAAAGCUUGAGAGCAUCUUAGGAUGCAGUGGCGGCAGCCCUCGGUGGCGCGAUAGCGCCAAGGUUCUCAACUAUGACACGCAAAACGCGUGCUCCGUUGAAUGGAGUUUAUCAUG [A16C C57A A66U U77C C99G], the figure is no more than -4.2; as for GGAUCUUCUCGAUCUCACAAAAAAGACAAAUCUGCCACAAAGAUUGAAAGCAUCUGCGGAUGCAGAGGCGGCAGCCUUCGGUGUCGCGAUAGCGCCAACGUUCUCAACUAUGACACGCAAAACGCGUGCUCCGUUGAAUGGAAUUUAUCAUG [A16C C43A G48A U56G G84U G143A], no more than -4.2.
